Experimental data taken from the RNAGym collection of RNA variant scans (doi:10.1101/gad.245936.114).
Variants at the floor of the assay are shown more often than the library holds them.

B1: tRNA (parent)
chain: CUCUCGGUAGCCAAGUUGGUUUAAGGCGCAAGACUUUAAUUUAUCACUACGAAAUCUUGAGAUCGGGCGUUCGACUCGCCCCCGGGAGAUUUUUUCCUCGAGCAA

Variants of: B1
Test: nonsense suppression (GFP-seq) (ratio to wild type); higher = more function; SUP4oc tRNA, yeast GFP reporter sort-seq
Outline: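 Sorted GFP/RFP bins of yeast were each Illumina-sequenced with a phred ≥30 cutoff; the cells held a genome-integrated ochre-suppressor tRNA variant from a library with ~3% random mutations, a galactose-driven GFP ochre reporter, and RFP. Culture was in raffinose/galactose medium containing 80 mg/L adenine. Nonsense suppression, termed GFPSEQ, is the median GFP/RFP of the bins weighted by each variant's estimated cell share per bin, relative to the unmutated parent tRNA, for variants reaching ≥100 reads and ≥30 cells.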

Nonsense suppression, ≤ 0.026:
CUCUCGGUAGGCAAGUUGGUUUAAGGCGCAAGACUUUAAUUUAUCACUACGAAAUCCUGAGAUCGGGCGUUCGACUCGCCCCCGGGAGAUUUUUUCCUCGAGCAA [C11G U57C]
CUCUCGGUAGGCAAGUUGGCUUGAGGCGCAAGACUUUAAUUUAUCACUACGAAAUCUUGAUAUCGGGCGUUCGACUCGCCCCCGGGAGAUUUUUUCCUCGAGCAA [C11G U20C A23G G61U]
CUCUCGGUAGUCAAGUUGGUUUAAGGCGCGAGACUUUAAUUUAUCACUACGAAAUCUUGAGAUCGGGCGUUCGACUCGCCCCCGGGAGAUUUUUUCCUCGAGCAA [C11U A30G]
CUCUCGGUAGUCAUGAUGGUUUAAGGCGCAAGACUUUAAUUUAUCACUACGAAAUCUUGAGAUCGGGCGUUCGACUCGCCCCCGGGAGAUUUUUUCCUCGAGCAA [C11U A14U U16A]
CUCUCGGUAGGCAAGAUGGUUUAAGGCGCAAGACUUUAAUUUAUCACUACGAAAUCUAGAGAUCGGGCGUUCGACUCGCCCCCGGGAGAUUUUUUCCUCGAGCAA [C11G U16A U58A]
CUCUCGGUAGGCAAGUUGGUUAAAGGCGCAAGACCUUAAUUUAUCACUACGAAAUCUUGAGAACGGGCGUUCGACUGGCCCCCGGGAGAUUUUUUCCUCGAGCAA [C11G U22A U35C U63A C77G]
CUCUCGGUAGUCAAGUUGGUUUAAGGCGCUAGACUUUAAUUUAUCACUACGAAAUUUUGAGAUCGGGCGUUCGACUCGCCCCCGGGAGAUUUUUUCCUCGAGCAA [C11U A30U C56U]
CUCUCGGUAGGCAAGUUGGUUUAAGGCGCAAGACUUUAAUUUAUCACUACGAAAUCUUGAGAUCGGCCGUUCGACUCGCCCCCGGGAGAUUUUUUCCUCGAGCAA [C11G G67C]
CUCUCGGUAGGCAAGUUGGUUUAAGGCGCAAGACUUUAAUUUAUCACUACGAAAUCUUGAGAUCGGACGUUCGACUCGCCCCCGGGAGAUUUUUUCCUCGAGCAA [C11G G67A]
CUCUCGGUAGGCAAGUUGGUUUAAGGCGCAAGACUUUAAUUUAUCACUACGAAAUCUGGAGAUCGGGCUUUCGACUCGCCCCCGGGAGAUUUUUUCCUCGAGCAA [C11G U58G G69U]
CUCUCGGUAGGCAAGUUGGUUUAAGGCGCAAGACUUUAAUUUAUCACUACGAAAUCUUGAGAUCGUGCGUUCCACUCGCCCCCGGUAGAUUUUUUCCUCGAGCAA [C11G G66U G73C G86U]
CUCUCGGUAGGCAAGUUGGUGUAAGGCGCAAGACUUUAAUUUAUCACUACGAAAUCUUGAGAUCGGGCGUUCGACUCGCCCCCGGGAGAUUUUUUCCUCGAGCAA [C11G U21G]
CUCUCGGUAGGCAAGUUGGUUUAAGGCGCAAGACUUUAAUUUAUCACUACGAAAUCUUGAGAUCGGGCGUUCCCCUCGCCCCCGGGAGAUUUUUUCCUCGAGCAA [C11G G73C A74C]
CUCUCGGUAGGCAAGUUGGGUUAAGGCGCAAGAUUUUAAUUUAUCACUACGAAAUCUGGAGAUCGGGAGUUCGACUCGCCCCCGGGAGAUUUUUUCCUCGAGCAA [C11G U20G C34U U58G C68A]
CUCUCGGUAGGCAAGUUGGUUUAAGGCGCAAGACUUUAAUUUAUCACUACGAAAUCUUGAGAACGGGCGGUCGACUCGCCCCCGGGAGAUUUUUUCCUCGAGCAA [C11G U63A U70G]
CUCUCGGUAGUCACGUUGGUUUAAGGCGCAAGACUUUAAUUUAUCACUACGAAAGGUAGAGAUCGGGCGUUCGACUCGCCCCCGGGAGAUUUUUUCCUCGAGCAA [C11U A14C U55G C56G U58A]
CUCUCGGUAGUCAAGUUGGUUUAAGGCGCAAGACUUUAAUUUAUCACUACGAAGUCUUGAGAUCAGGCGUUCGACUCGCCCCCGGGAGAUUUUUUCCUCGAGCAA [C11U A54G G65A]
CUCUCGGUAGGCAAGUUGGGUUAAGGCGCAAGACUUUAAUUUAUCACUACGAAAUCUUGAGAUCGGGCGUUGGACUCGCCCCCGGGAGAUUUUUUCCUCGAGCAA [C11G U20G C72G]
CUCUCGGUAGGCAAGUUGGUUUAAGGCGCAAGACUUUAAUUUAUCACUACGAAAUCUUGAGAUCGGGCGUUCGACACGCCCCCGGGAGAUUUUUUCCUCGAGCAA [C11G U76A]
CUCUCGGUAGGCAAGUUGGUUUAAGGCGCAAGACUUUAAUUUAUCACUACGAAAUCAUGAGAUCGGGCGUUCGACUCCCCGCCGGGAGAUUUUUUCCUCGAGCAA [C11G U57A G78C C81G]
CUCUCGGUAGUCCAGUUGGUUUAAUGCGCAAGAGUUUAAUUUAUCACUACGAAAUCUUGAGAUCGGGCGUUCGAGUCGCCCCCGGGUGAUUUUUUCCUCGAGCAA [C11U A13C G25U C34G C75G A87U]
CUCUCGGUAGUCCAGUUGGUUUAAGGCGCAAGACUUUAAUUUAUCACUACGAAAUCUUGAGAUCGGGCGUUCGACUCGCCCCAGGGAGAUUUUUUCCUCGAGCAA [C11U A13C C83A]
CUCUCGGUAGUCUAGUUGGUUUAACGCGUAAGACUUUAAUUUAUCACUACGAAAUCUUGAGAUCGGGCGUUCGACUCGCCCCCGGGAGAUUUUUUCCUCGAGCAA [C11U A13U G25C C29U]
CUCUCGGUAGUCAAGUUGGUUUCAGGAGCAAGACUUUAAUUUAUCACUACGAAAUCUUGAGAUCGGGCGUUCGACUCGCACCCGGGAGAUUUUUUCCUCGAGCAA [C11U A23C C27A C80A]
CUCUCGGUAGGCAAGUUGGUUUAAGGCGCAAGACUUUAAUUUAUCACUACGAAAUCUUGAGAUCGGGCGUUCGACUCGCCCCCAGGAGAUUUUUUCCUCGAGCAA [C11G G84A]
CUCUCGGUAGGCAAGUUGGUUUAAGGCGCAAGACUUUAAUUUAUCACUACGAAAUCUUGAGAUCGGGCGUUCGACUCGCCCCCUGGAGAUUUUUUCCUCGAGCAA [C11G G84U]
CUCUCGGUAGGCAAGUUGGUUUAAGGCGCAAGACUUUAAUUUAUCACUACGAAAUCUCGAGAUCGGGAGUUCGACUCGCCCCCGGAAGAUUUUUUCCUCGAGCAA [C11G U58C C68A G86A]
CUCUCGGUAGGCAAGUUGGUUCAAGGCGCAAGACUUUAAUUUAUCACUACGAAAUCUUGAGAUCGGGCGUUCGACUCGCCCCGGGGAGAUUUUUUCCUCGAGCAA [C11G U22C C83G]
CUCUCGGUAGGCAAGUUGGUUUAAGGCGCAAGACUUUAAUUUAUCACUACGAAAUCUUGAGAUCGGUCGUUCGACUCGCACCCGGGAGAUUUUUUCCUCGAGCAA [C11G G67U C80A]
CUCUCGGUAGGCAAGGUGGUUUAAGGCGUAAGACUUUAAUUUAUCACUACGAAAUCUUGAAAUCGGGCGUUCGACUCGCCCCCGGGGGAUUUUUUCCUCGAGCAA [C11G U16G C29U G61A A87G]
CUCUCGGUAGGCAAGUUGGUUUAAGGCGCAAGACUUUAAUUUAUCACUACGAAAUCUUGAGAUCGGGCGUGCGACUCGCCCCCGGGAGAUUUUUUCCUCGAGCAA [C11G U71G]
CUCUCGGUAGGCAAGUAGGUUUAAGGCGCAAGACUUUAAUUUAUCACUACGAAAUCUUGAGAUCGGGCGUUCGACUCGCCCCCGGGAGAUUUUUUCCUCGAGCAA [C11G U17A]
CUCUCGGUAGGCAAGGUGGUUUAAGGCGCAAGACUUUAAUUUAUCACUACGAAAUCUUGAGAUCGGGCGUUCGACUUGCCCCCGGGAGAUUUUUUCCUCGAGCAA [C11G U16G C77U]
CUCUCGGUAGUCAAGUUGGUUUAAGGCGCAAGGCUUUAAUUUAUCACUACGAAAUCUUGAGAUCGGGCGCUCGACUCGCCCCCGGGAGAUUUUUUCCUCGAGCAA [C11U A33G U70C]
CUCUCGGUAGGCAAGUCGGUUUAAGGCGCAAGACUUUAAUUUAUCACUACGAAAUGUUGAGAUCGGGCGUUCGACUCGCCCCCGGGAGAUUUUUUCCUCGAGCAA [C11G U17C C56G]
CUCUCGGUAGGCAAGUUGGUUUAAGGCGCAAGACUUUAAUUUAUCACUACGAAAUCUUGAGAUCGGGCGUUCGACUCGCCCCCGCGAGAUUUUUUCCUCGAGCAA [C11G G85C]
CUCUCGGUAGGCAAGUUGGUUUAAGGCGCAAGACCUUAAUUUAUCACUACGAAAUCUUGAGAUCGGGCGUUCGACUCGCCCCCGGGAGAUUUUUUCCUCGAGCAA [C11G U35C]
CUCUCGGUAGUCAAGUUGGUUUAAGGCGCAAGCCUUUAAUUUAUCACUACGAAAUCUUGAGAUCGGGCGUUCGUGUCGCCCCCGGGAGAUUUUUUCCUCGAGCAA [C11U A33C A74U C75G]
CUCUCGGUAGUCAAGUUGGUUUAAGGCGCAAGCCUUUAAUUUAUCACUACGAAAUCUUGAGAUCGGGCGUUCGACUCGCCCCCGGGAGAUUUUUUCCUCGAGCAA [C11U A33C]
CUCUCGGUAGGCAAGUUGGUUUAAGGCGCAAGACUUUAAUUUAUCACUACGAAAUCUUGAGAUCGGGCAUUCGACUCGCCCACGGGAGAUUUUUUCCUCGAGCAA [C11G G69A C82A]
CUCUCGGUAGUCAAGUUGGUUUAAGGCGCAUGACUUUAAUUUAUCACUACGAAAUCUUGAGAUCGGGCGUUCGACUCGCCCCCGGGAGAUUUUUUCCUCGAGCAA [C11U A31U]
CUCUCGGUAGUCAAGUUGGUUUAAGGCGCAGGACUUUAAUUUAUCACUACGAAAUCUUGAGAUCGGGCGUUCGACUCGCCCCCGGGAGAUUUUUUCCUCGAGCAA [C11U A31G]
CUCUCGGUAGGCAAGUUGGGUUAAGGCGCAAGACUUUAAUUUAUCACUACGAAAUCUUGAGAUCGGGCGUCCGACUCGCCCCCGGGAGAUUUUUUCCUCGAGCAA [C11G U20G U71C]
CUCUCGGUAGUCAAGUUGGUUUGAGGCGCAAGACUUUAAUUUAUCACUACGAAAUCUUGAGAUCGGGCGUUCGACUCGCCCCCGGGAGAUUUUUUCCUCGAGCAA [C11U A23G]
CUCUCGGUAGGCAAGUUGGUUUAAGGCGCAAGACUUUAAUUUAUCACUACGAAAUCUGGAGAUCGGGCGUUCGACUCGCCCCCGGGAGAUUUUUUCCUCGAGCAA [C11G U58G]
CUCUCGGUAGGCAAGUUGGCUCAAGGCGCAAGACUUUAAUUUAUCACUACGAAAUCUUGAGAUCGGGCGUUCGACUCGACCCCGGGAGAUUUUUUCCUCGAGCAA [C11G U20C U22C C79A]
CUCUCGGUAGGCAAGCUGGUUUAAGGCGCAAGACUUUAAUUUAUCACUACGAAAUCUUGAGAUCGGGCAUUCGACUCGCCCCCGCGGGAUUUUUUCCUCGAGCAA [C11G U16C G69A G85C A87G]
CUCUCGGUAGUCAAGUUGGUUUAAGGCGCAAGCCUUUAAUUUAUCACUACGAAAUCUUGAGAUCAGGCGUUCGACUCGCCCCCGUGAGAUUUUUUCCUCGAGCAA [C11U A33C G65A G85U]
CUCUCGGUAGGCAAGUUGGUUUAAGGCGCAAGACUUUAAUUUAUCACUACGAAAUCUUGAGAUCGGGCGUUCGACUCACCCCCGGGAGAUUUUUUCCUCGAGCAA [C11G G78A]
CUCUCGGUAGGCAAGUUGGUUUAAGGCGCAAGACUUUAAUUUAUCACUACGAAAUCUUGAGAUCGGGCCUUCGACUCGCCCCCGGGAGAUUUUUUCCUCGAGCAA [C11G G69C]
CUCUCGGUAGGCAAGUUGGUUUAAGGCGCAAGACUUUAAUUUAUCACUACGAAAUCUUGAGAUCGGGCAUUCGACUCGCCCCCGGGAGAUUUUUUCCUCGAGCAA [C11G G69A]
CUCUCGGUAGUCAUGUUGGUUUGAGGCGCAAGACUUUAAUUUAUCACUACGAAAUCUUGAGAUCGGGCGUUCGACUCGCCCCCGGGAGAUUUUUUCCUCGAGCAA [C11U A14U A23G]
CUCUCGGUAGGCAAGAUGGUUUAGGGCGCAAGACUUUAAUUUAUCACUACGAACUCUUGAGAUCGGGCGUUCGGCUCGCCCCCGGGAGAUUUUUUCCUCGAGCAA [C11G U16A A24G A54C A74G]
CUCUCGGUAGGCAAGCUGGUUUAAGGCGCAAGACUUUAAUUUAUCACUACGAAAUCUUGAGGUCGGGCGUUCGACUCGCCCCCGGGAGAUUUUUUCCUCGAGCAA [C11G U16C A62G]
